According to PMC4336329 (PLoS ONE, 2015):
Hit rate of the full screen: of about 310,000 compounds, about 14,000 (4.5%) showed an effect of 50% or more. The effect is printed as a negative number. This is one part of the list.

Target: human ether-à-go-go-related gene (hERG) potassium channel (human, UniProt Q12809)
Test: primary screen, population patch clamp on CHO cells stably expressing hERG
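Further: peak tail current of the secondary pulse compared with the same well before compound.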

Chain of human ether-à-go-go-related gene (hERG) potassium channel (Q12809 whole entry, looked up): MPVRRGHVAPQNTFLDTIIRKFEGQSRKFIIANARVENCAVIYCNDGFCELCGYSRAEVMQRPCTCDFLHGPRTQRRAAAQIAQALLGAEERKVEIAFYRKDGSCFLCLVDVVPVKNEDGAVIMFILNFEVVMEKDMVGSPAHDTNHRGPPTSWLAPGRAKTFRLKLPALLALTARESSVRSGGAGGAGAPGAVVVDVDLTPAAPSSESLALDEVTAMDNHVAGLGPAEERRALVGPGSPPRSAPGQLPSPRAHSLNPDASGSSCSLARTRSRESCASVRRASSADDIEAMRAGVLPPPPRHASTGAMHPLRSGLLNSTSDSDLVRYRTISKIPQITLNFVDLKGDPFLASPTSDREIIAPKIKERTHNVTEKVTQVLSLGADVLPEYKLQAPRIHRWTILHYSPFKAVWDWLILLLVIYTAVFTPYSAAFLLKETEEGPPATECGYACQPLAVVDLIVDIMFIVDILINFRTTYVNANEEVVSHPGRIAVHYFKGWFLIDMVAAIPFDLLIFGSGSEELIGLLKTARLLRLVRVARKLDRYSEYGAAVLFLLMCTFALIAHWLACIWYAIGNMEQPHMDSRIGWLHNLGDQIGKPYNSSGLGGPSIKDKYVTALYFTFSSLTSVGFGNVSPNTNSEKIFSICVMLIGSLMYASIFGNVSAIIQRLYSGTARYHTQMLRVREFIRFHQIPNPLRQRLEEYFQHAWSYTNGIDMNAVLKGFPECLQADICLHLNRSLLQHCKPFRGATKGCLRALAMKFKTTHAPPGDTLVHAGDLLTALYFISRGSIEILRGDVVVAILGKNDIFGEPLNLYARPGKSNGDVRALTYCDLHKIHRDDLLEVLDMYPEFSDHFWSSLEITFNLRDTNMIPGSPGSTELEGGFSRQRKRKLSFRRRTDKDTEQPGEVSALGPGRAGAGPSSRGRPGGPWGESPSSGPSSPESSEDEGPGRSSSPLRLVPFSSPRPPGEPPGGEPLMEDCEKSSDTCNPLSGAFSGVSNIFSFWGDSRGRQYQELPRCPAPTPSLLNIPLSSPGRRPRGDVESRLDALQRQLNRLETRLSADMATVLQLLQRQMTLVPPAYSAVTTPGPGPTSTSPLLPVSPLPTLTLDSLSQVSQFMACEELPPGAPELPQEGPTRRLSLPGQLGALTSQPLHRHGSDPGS

Structure (SMILES) | hERG current change (%, negative = inhibition) at 10uM
COc1cc(C2c3c(oc4cc(C)c(C)cc4c3=O)C(=O)N2c2cc(C)ccn2)ccc1O (centres unmarked) | 6.44%
CCc1nnc(NC(=O)C2CCN(c3nc(C)cc(C)n3)CC2)s1 | 14.4%
O=C(NCc1ccccc1)C(=O)c1cn(CC(=O)N2CCOCC2)c2ccccc12 | 19.6%
Oc1cc2c(cc1CN1CCc3ccccc3C1)OCO2 | -0.697%
Cc1cccc(C)c1OCCCCCNCCO | 5.08%
O=C(N/N=C\c1cc2c(cc1Cl)OCO2)c1cccnc1 | 4.34%
O=C(CO/N=C/c1ccc(OC(F)F)cc1)NCc1ccco1 | -51.8%
CC1CCc2sc(C(=O)N3CCC(C(N)=O)CC3)cc2C1 (centres unmarked) | 5.36%
COCCN(C(=S)Nc1cccc(Cl)c1C)C(C)c1ccco1 (centres unmarked) | -15.4%
O=C(CN1CCC(n2nnc3cc(F)ccc32)CC1)NNC(=O)c1ccccc1 | -11.9%
CSCC[C@H](NC(=O)NCCc1ccc(F)cc1)C(=O)O | -6.55%
CC(=O)Nc1ccc(S(=O)(=O)Nc2ccc(S(=O)(=O)Nc3ncccn3)cc2)cc1 | -0.782%
O=c1cc(-c2ccccc2)[nH]c2cc(F)ccc12 | 2.32%
O=C(OCc1cc(=O)oc2cc(O)ccc12)c1cc(S(=O)(=O)N2CCOCC2)ccc1F | 5.32%
CC(CNS(=O)(=O)c1ccc2c(c1)CC(=O)N2C)c1ccccc1 (centres unmarked) | -12.3%
Fc1ccc(-c2csc(-c3ccc(C4SCCS4)cc3)n2)cc1F | 4.89%
Cc1cccc(NS(=O)(=O)c2cnc[nH]2)c1 | 6.61%
COC(=O)c1ccccc1NC(=O)c1cc(-c2ccco2)on1 | 22.6%
O=C(CNC(c1ccccc1)c1ccccc1)Nc1ccccc1Br | 23.3%
COCCn1c(=NC(=O)c2ccc(S(=O)(=O)N3CCc4ccccc4C3)cc2)sc2cc(S(N)(=O)=O)ccc21 | 4.21%
CCCNC(=O)Nc1nc2ccccc2s1 | -3.26%
O=C1CN(C(=O)CN2CCCCC2)C(c2ccccc2)c2cc(Br)ccc2N1 (centres unmarked) | -66.5%
COc1ccc(C(=O)N2CCN(S(=O)(=O)c3ccc4c(c3)OCCO4)CC2)cc1OC | -12.8%

Structure (SMILES) | hERG current change (%, negative = inhibition) at 10uM
O=C1CCN(CCc2ccccc2)CCN1[C@H](CSc1ccc(Br)cc1)c1ccccc1 | -66.2%
Cc1c(CCO)c(=O)n(C)n1C(=O)c1ccc(Cl)cc1 | -2.66%
Cc1csc(NC(=O)CSc2nncn2C)n1 | 19%
COc1cccc(CN2CCNC(=O)C2CC(=O)NC2CCCCCCC2)c1 (centres unmarked) | 14%
CC(Sc1nc2ccccc2c(=O)n1C)C(=O)Nc1ccc2c(c1)OCCO2 (centres unmarked) | 15.1%
CCCCn1c(=NC(=O)c2ccco2)c(C(=O)OCC)cc2c(=O)n3cccc(C)c3nc21 | -81.6%
CCC(O)C1CCN(Cc2cn(-c3ccc(OC)cc3)nc2-c2cccc(F)c2)CC1 (centres unmarked) | -75.3%
CCC(C(=O)Nc1cc(C)cc(C)n1)c1ccccc1 (centres unmarked) | -23.6%
COc1ccc(NC(=O)Nc2ccc(O)c3ccccc23)cc1 | 9.01%
O=C(/C=C/Nc1ccccc1)c1ccc(Cl)cc1Cl | 6.04%
CN(c1cc(=O)n2ccccc2n1)C1CCCCC1 | -0.762%
C[C@@H](NC(=O)[C@@H]1Cc2ccccc2CN1)C(=O)NCC1CCCO1 (some centres unmarked) | 20.9%
CCCCC(=O)Nc1nnc(S(=O)(=O)N(CC)c2ccc(OC)cc2)s1 | 6.21%
CCOc1ccc(NC(=O)CN(C)C(=O)c2ccc(COc3ccccc3)cc2)cc1OCC | -7.39%
O=C(Oc1ccc(Br)cc1)c1cncc(Br)c1 | 8.29%
Cc1ccc(C(=O)CSc2nnnn2Cc2ccccc2)cc1C | 11.3%
COc1cc(/C=C2/C(=N)N3N=C(CC(=O)N4CCOCC4)SC3=NC2=O)ccc1OCc1ccccc1 | 19%
CCc1ccc(NC(=O)CNC(=O)[C@@H]2Cc3ccccc3CN2C(=O)OC(C)(C)C)cc1 | -22.8%
CCn1nc(NS(=O)(=O)c2ccc(NC(C)=O)cc2)c2cc3cc(C)ccc3nc21 | 16.7%
CCOC(=O)Nc1ccc(C(=O)Oc2ccccc2)c(O)c1 | 1.52%
CCNC(=S)NNC(=O)c1ccc(=O)n(Cc2ccccc2)c1 | -1.41%
C=CCNC(=S)NC(=O)c1csc([N+](=O)[O-])c1 | -3.79%
CCCCC(C(=O)O)C(C)CC(=O)NNC(=O)c1ccco1 (centres unmarked) | 13.2%

Structure (SMILES) | hERG current change (%, negative = inhibition) at 10uM
CCn1c(=O)cc(SCC(=O)Nc2cccc(SC)c2)c2ccccc21 | 13.5%
C/C(=N\NC(=O)Cc1ccccc1Cl)c1cccnc1 | 12.4%
Cc1cc(OCC(=O)N2CCc3ccccc3C2)c(C)cc1Br | 21.6%
COc1ccc2c(c1)[nH]c1c(=O)n(CCN(C)C)cnc12 | -34.1%
CC(=O)NCC(=O)N1CCCC(C(=O)c2ccc(-c3ccccc3)c(F)c2)C1 (centres unmarked) | -25.1%
O=C(Nc1ccccc1-c1nc2ccccc2[nH]1)c1sc2ccccc2c1Cl | 1.59%
CC(OC(=O)c1ccncc1)C(=O)NC1CCCC1 (centres unmarked) | 9.99%
NNC(=O)CN1C(c2ccc(Br)cc2)=Nc2ccc(Br)cc2C1c1ccccc1 (centres unmarked) | -30.8%
CC(C)Cc1nnc(NC(=O)CCC(=O)N2CCN(c3ccccn3)CC2)s1 | -11.3%
O=C(CN1CCOCC1)Nc1ccc(NC(=O)CN2CCOCC2)c(Cl)c1 | 2.62%
CCN1CCCC1CNCc1cccc(OC)c1OCc1ccccc1.Cl (centres unmarked) | -26.9%
NC(=O)Nc1ccc(C(=O)OCC(=O)N2CCc3ccccc3C2)cc1 | 5.29%
CCC(C(=O)NCc1ccccn1)n1c2ccccc2c2nc(=O)cc(C)n21 (centres unmarked) | -1.77%
Cc1ccc2cc(/C=N/NC(=O)c3ccc(F)cc3)c(Cl)nc2c1 | -5.9%
S=C(c1ccc(Br)cc1)N1CCCC1 | -3.82%
O=C(c1cnn2c1NC(c1ccc(Br)cc1)CC2C(F)(F)F)N1CCN2CCCC2C1 (centres unmarked) | -63.5%
CCN1CCCC1CNCc1cccc(OC)c1OCc1ccccc1F.Cl (centres unmarked) | -54.4%
COc1ccc(C2CC(c3ccc(C)cc3)=NN2C(=O)c2ccccc2)cc1 (centres unmarked) | 21.4%
CCCC(=O)Nc1cc(-c2nnc(OC)c3ccccc23)ccc1N1CCOCC1 | -42.9%
COc1ccc(-c2csc(NC(=O)CS(=O)(=O)c3ccc(F)cc3)n2)cc1OC | -25.6%
COc1cc(CN2CCc3c([nH]c4ccccc34)C2)cc(OC)c1 | -55.7%
Cc1cccc(Nc2nc(CC(=O)O)cs2)c1 | 5.01%
Cn1nnnc1SCc1csc(C2C(C#N)=C(N)OC3=C2C(=O)CCC3)c1 (centres unmarked) | -12.2%

Structure (SMILES) | hERG current change (%, negative = inhibition) at 10uM
Cc1nn2c(NCc3ccccn3)c3c(nc2c1-c1ccccc1)CCC3 | -51%
Cc1ccc2c(c1)N(CCC(=O)NCCCN1CCCC1)C(=O)C(C)O2 (centres unmarked) | 22.4%
Cc1ccc(C)c(OCC(=O)Nc2ccccc2C(=O)N2CCN(C)CC2)c1 | -9.99%
CC(C)(C)NC(=O)Nc1nnc(SCC(=O)NC2CCCCC2)s1 | -0.523%
O=C1CC(c2ccco2)Cc2nc(NCC3CCCO3)ncc21 (centres unmarked) | -32.4%
CC1CC1C(=O)OCC(=O)Nc1cccc(F)c1 (centres unmarked) | 3.09%
Cc1ccc(OCCNC(=O)C2CCCCC2)cc1 | -2.18%
O=C(COC(=O)c1cccc(S(=O)(=O)N2CCCCC2)c1)NC1CCCc2ccccc21 (centres unmarked) | 15.8%
CO/N=C/c1ccc(Oc2ccc(C)cc2)c([N+](=O)[O-])c1 | 12.1%
CSc1ccccc1NC(=O)CN(Cc1ccc(Cl)cc1)S(C)(=O)=O | -16.2%
CC(=O)Nc1ccc(Nc2nc(C)c([N+](=O)[O-])c(N(C)c3ccccc3)n2)cc1 | -48.2%
COC(=O)COc1cccc2c(=O)n(CC(=O)N3CCC(C)CC3)ccc12 | 5.01%
COc1cc(/C(C)=N/NC(=O)CSc2nc3ccccc3[nH]2)ccc1O | -22.5%
O=C(Nc1nnc(-c2ccccc2SCc2ccccc2)s1)Nc1ccccc1F | 22.9%
CN(Cc1cn(C)nc1-c1cccc(Cl)c1)C1CCOCC1 | -4.25%
CCOc1ccc(NC(=O)CN(C)C(=O)CC2OC(=O)c3ccccc32)cc1OCC (centres unmarked) | 0.75%
CC(NC(=O)c1ccc2c(c1)OCO2)C1CCCO1 (centres unmarked) | -8.57%
CCOc1ccc(C(c2nnnn2Cc2ccccc2)N2CCN(C(=O)c3ccco3)CC2)cc1.Cl (centres unmarked) | -57%
COc1ccc(CC(=O)NNc2ncnc3c2cnn3C)cc1 | 3.18%
COc1cccc(NC(=O)CN(C)C(=O)c2cc3ccccc3cc2OC)c1 | -46.6%
